27 compounds from the supplement of paper PMC10037445 can be followed below.

Values joined by “and” are separate entries in the source; they are usually repeats but may differ in a detail not shown here. Identical values can stand only once. In all, about 2,900 compounds were measured (“IRF Lucia reporter activity, fold change vs agonist alone”: median about 0.9, highest 2% from about 2.8 on). The list shows a part of the results.

The subject of assay [1] is RAW-Dual. As to the kind of experiment: IRF Lucia reporter activity, fold change vs agonist alone; cytotoxicity flag (confluency mask): not cytotoxic; higher = enhanced IRF activity. Summed up: (§1)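 Cytotoxic wells were those whose IncuCyte confluency was below 70% of agonist controls in both mask sets. The cells were RAW-Dual macrophages at 50,000 cells/well in DMEM on 384-well plates, dosed with 50 nL of library stock by pin tool, stimulated with a PRR agonist 1 h later, and kept at 37 °C, 5% CO2 for 20 hours. IRF and NF-κB reporter activity, as fold change over agonist-alone wells, came from supernatant read by QuantiLuc luminescence and QuantiBlue absorbance, respectively.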

The subject of assay [2] is RAW-Dual. The assay can be described thus: IRF Lucia reporter activity, fold change vs agonist alone; higher = enhanced IRF activity. The conditions noted are these: cytotoxicity flag (confluency mask): not cytotoxic, agonist: MPLA (TLR4) […]. A digest of the protocol: as §1
The test system of assay [3] is RAW-Dual. The assay can be described thus: IRF Lucia reporter activity, fold change vs agonist alone; cytotoxicity flag (confluency mask): cytotoxic (confluency <70% of control); higher = enhanced IRF activity. A digest of the protocol:
as §1

Where [4] appears, read: agonist: 3'3'-cGAMP (STING) 10 ug/mL.
The mark [5] stands for this setting: library stock concentration (final ~1000-fold dilution): 10 mM.

Turning to `COc1cc2c(cc1OC)C1Cc3ccc(OC)c(OC)c3CN1CC2` (stereo not drawn) (library stock concentration (final ~1000-fold dilution): 10 mM), the “IRF Lucia reporter activity” value in assay [1] (setting [4]) came to 0.933; in assay [1] (agonist: LPS (TLR4) 0.1 ug/mL), 0.84.

For the compound `COc1cc2c(cc1OC)C1Cc3ccc(OC)c(OC)c3CN1CC2` (stereo not drawn), in assay [2] (setting [5]), the “IRF Lucia reporter activity” value was 1.05. On to `COc1ccc(C2=NC(c3ccc(Cl)cc3)C(c3ccc(Cl)cc3)N2C(=O)N2CCNC(=O)C2)c(OC(C)C)c1` (stereo not drawn), for which the “IRF Lucia reporter activity” value in assay [2] (setting [5]) came to 1.45. `COc1ccc(C2=NC(c3ccc(Cl)cc3)C(c3ccc(Cl)cc3)N2C(=O)N2CCNC(=O)C2)c(OC(C)C)c1` (stereo not drawn) (library stock concentration (final ~1000-fold dilution): 10 mM): the “IRF Lucia reporter activity” value in assay [1] (setting [4]) was 0.418 and 0.472; in assay [1] (agonist: LPS (TLR4) 0.1 ug/mL), 1.54 and 1.25. With `CCN(CC)CCNC(=O)c1c(C)[nH]c(/C=C2\C(=O)Nc3ccc(F)cc32)c1C` (library stock concentration (final ~1000-fold dilution): 10 mM), the “IRF Lucia reporter activity” value in assay [3] (setting [4]) was found to be 0.0176; in assay [3] (agonist: LPS (TLR4) 0.1 ug/mL), 0.187. As for `CCOc1cc2ncc(C#N)c(Nc3ccc(F)c(Cl)c3)c2cc1NC(=O)/C=C/CN(C)C`, in assay [2] (setting [5]), the “IRF Lucia reporter activity” value was found to be 0.0274. With `CCOc1cc2ncc(C#N)c(Nc3ccc(F)c(Cl)c3)c2cc1NC(=O)/C=C/CN(C)C` (library stock concentration (final ~1000-fold dilution): 10 mM), the “IRF Lucia reporter activity” value in assay [1] (setting [4]) amounted to 0.0535; in assay [1] (agonist: LPS (TLR4) 0.1 ug/mL) it was 0.0225. The like results for `Cc1ncc(NC(=O)c2cccc(C(F)(F)F)c2)cc1-c1cnc(OC2CCOCC2)c(N2CCOCC2)c1` (library stock concentration (final ~1000-fold dilution): 10 mM) were, in that order, 0.811 and 0.615. The like results for `O=c1c(-c2ccc(O)cc2)coc2cc(OC3OC(CO)C(O)C(O)C3O)ccc12` (stereo not drawn) (library stock concentration (final ~1000-fold dilution): 10 mM) were, in that order, 1.03 and 1.03.

Take `O=c1c(-c2ccc(O)cc2)coc2cc(OC3OC(CO)C(O)C(O)C3O)ccc12` (stereo not drawn): the “IRF Lucia reporter activity” value in assay [2] (setting [5]) worked out at 1.07. For `Cc1cc(/C=C/C#N)cc(C)c1Nc1ccnc(Nc2ccc(C#N)cc2)n1` (library stock concentration (final ~1000-fold dilution): 10 mM), the “IRF Lucia reporter activity” value was 0.03 in assay [1] (setting [4]) and 0.489 in assay [1] (agonist: LPS (TLR4) 0.1 ug/mL). Take `Cc1cc(/C=C/C#N)cc(C)c1Nc1ccnc(Nc2ccc(C#N)cc2)n1`: in assay [2] (setting [5]), the “IRF Lucia reporter activity” value was determined as 0.64.

Turning to `COc1ccc(C(=O)NCc2ccc(OCCN(C)C)cc2)cc1OC.Cl` (library stock concentration (final ~1000-fold dilution): 10 mM), the entries for the “IRF Lucia reporter activity” value in assay [1] (setting [4]) and in assay [1] (agonist: LPS (TLR4) 0.1 ug/mL) were 0.999 and 1.32, respectively. Turning to `COc1ccc(C(=O)NCc2ccc(OCCN(C)C)cc2)cc1OC.Cl`, the “IRF Lucia reporter activity” value in assay [2] (setting [5]) amounted to 1. On to `Cc1cc(=O)[nH]c(=S)[nH]1` (library stock concentration (final ~1000-fold dilution): 10 mM), for which the “IRF Lucia reporter activity” value came out at 0.86 in assay [1] (setting [4]) and 1.1 in assay [1] (agonist: LPS (TLR4) 0.1 ug/mL). `O=S(=O)(NCCSSCCNS(=O)(=O)c1cc(Cl)ccc1Cl)c1cc(Cl)ccc1Cl` (library stock concentration (final ~1000-fold dilution): 10 mM): the results for the “IRF Lucia reporter activity” value in assay [1] (setting [4]) and in assay [1] (agonist: LPS (TLR4) 0.1 ug/mL) were 0.0387 and 0.385, respectively. Turning to `O.O=c1c(O)c(-c2ccc(O)cc2O)oc2cc(O)cc(O)c12` (library stock concentration (final ~1000-fold dilution): 10 mM), the “IRF Lucia reporter activity” value came out at 0.868 in assay [1] (setting [4]) and 0.795 in assay [1] (agonist: LPS (TLR4) 0.1 ug/mL). With `O.O=c1c(O)c(-c2ccc(O)cc2O)oc2cc(O)cc(O)c12`, the “IRF Lucia reporter activity” value in assay [2] (setting [5]) is 0.967. Consider `O=C1N=C(O)CN1N=Cc1ccc(-c2ccc([N+](=O)[O-])cc2)o1`, for which the “IRF Lucia reporter activity” value in assay [2] (setting [5]) was found to be 0.99.

Turning to `O=C1N=C(O)CN1N=Cc1ccc(-c2ccc([N+](=O)[O-])cc2)o1` (library stock concentration (final ~1000-fold dilution): 10 mM), the “IRF Lucia reporter activity” value in assay [1] (setting [4]) amounted to 0.998; in assay [1] (agonist: LPS (TLR4) 0.1 ug/mL), 1.07. On to `COCCNCc1ccc(-c2cc3nccc(Oc4ccc(NC(=O)C5(C(=O)Nc6ccc(F)cc6)CC5)cc4F)c3s2)nc1` (library stock concentration (final ~1000-fold dilution): 10 mM), for which the “IRF Lucia reporter activity” value was determined as 0.0586 in assay [1] (setting [4]) and 0.115 in assay [1] (agonist: LPS (TLR4) 0.1 ug/mL). Regarding `CC(=O)OC1(C(C)=O)CCC2C3C=C(Cl)C4=CC(=O)CCC4(C)C3CCC21C` (stereo not drawn), in assay [2] (setting [5]), the “IRF Lucia reporter activity” value is 1.03. `CC(=O)OC1(C(C)=O)CCC2C3C=C(Cl)C4=CC(=O)CCC4(C)C3CCC21C` (stereo not drawn) (library stock concentration (final ~1000-fold dilution): 10 mM): the “IRF Lucia reporter activity” value in assay [1] (setting [4]) was 1.13; in assay [1] (agonist: LPS (TLR4) 0.1 ug/mL) it was 0.873. For the compound `CN1CCc2c(c3ccccc3n2Cc2ccccc2)C1.CN1CCc2c(c3ccccc3n2Cc2ccccc2)C1.O=S(=O)(O)c1cccc2c(S(=O)(=O)O)cccc12`, the “IRF Lucia reporter activity” value in assay [2] (library stock concentration (final ~1000-fold dilution): 2 mM) was 1.25. On to `CN1CCc2c(c3ccccc3n2Cc2ccccc2)C1.CN1CCc2c(c3ccccc3n2Cc2ccccc2)C1.O=S(=O)(O)c1cccc2c(S(=O)(=O)O)cccc12` (library stock concentration (final ~1000-fold dilution): 2 mM), for which the “IRF Lucia reporter activity” value worked out at 1.04 in assay [1] (setting [4]) and 1 in assay [1] (agonist: LPS (TLR4) 0.1 ug/mL). For the compound `CCOc1ccc(Cc2cc(C3OC(CO)C(O)C(O)C3O)ccc2Cl)cc1` (stereo not drawn), in assay [2] (setting [5]), the “IRF Lucia reporter activity” value is 0.987.

Consider `CCOc1ccc(Cc2cc(C3OC(CO)C(O)C(O)C3O)ccc2Cl)cc1` (stereo not drawn) (library stock concentration (final ~1000-fold dilution): 10 mM), for which the “IRF Lucia reporter activity” value in assay [1] (setting [4]) is 1.02; in assay [1] (agonist: LPS (TLR4) 0.1 ug/mL), 0.922.
